According to ChEMBL document CHEMBL4888484, “Replenishing the malaria drug discovery pipeline: Screening and hit evaluation of the MMV Hit Generation Library 1 (HGL1) against asexual blood stage Plasmodium falciparum ,using a nano luciferase reporter read-out” (2022):
Screen size: about 150,000 compounds; about 540 (0.36%) showed an effect of 50% or more. The list shows a part of the results.

System: Plasmodium falciparum
Test: Primary screen in NF54 nanoGlo assay, in single point, at 2uM, 72h; a lower Z score goes with more inhibition
Type: functional, Erythrocyte
Conditions: timepoint 72 hour

SMILES | % Inhibition [%] | Z score
COC[C@H](CO)NC(=O)Nc1cc(-c2ccoc2C)on1 | 13 | -1.65
COc1cc(=O)n2c(c1C(=O)NC1CCN(Cc3ccccc3)CC1)CCCCC2 | -8 | 0.91
CC[C@H](C)NCCOCCOc1ccc(C)cc1 | -9 | 1.21
CC(C)c1nnc(CN2CCC[C@H]2c2ncn[nH]2)n1C | -1 | 0.1
N#Cc1ccc(CN2C[C@@H]3C[C@H]2C(=O)NC[C@H]2O[C@H](CCOc4cc(C5CCCC5)ccc4C(=O)N3)CC[C@@H]2O)cc1 | -2 | 0.31
COc1cccc(-c2nc3ccc(-c4cccc(C(F)(F)F)c4)cn3c2CN2CCN(C(=O)C3CCCC3)CC2)c1 | 0 | 0.02
Cc1cc(C)nc(NC(=O)N2C[C@@H](C)[C@](C)(CN)C2)c1 | -12 | 1.14
Cc1cccc(N2CCN(c3ccc(C(=O)O)cc3NS(=O)(=O)c3ccccc3)C[C@@H]2C)c1 | -4 | 0.42
CCc1noc(C2CCC(Nc3cnn(CC(=O)OC)c3C)CC2)n1 (stereo not drawn) | -17 | 1.87
CN(c1ncc(Cl)cc1Cl)C1CC(N)C1 (stereo not drawn) | -1 | 0.06
Fc1ccc(-c2cn[nH]c2[C@H]2CCCN(C3CCCC3)C2)cc1 | 4 | -0.56
CCOC(=O)[C@H]1CCCN(c2nc(Nc3ccc(F)cc3)c3nn[nH]c3n2)C1 | -10 | 1.62
Cc1cc(C)cc(NC(=O)c2ccc(-n3nnc4cccnc43)c(C)c2)c1 | 8 | -1.39
O=C(Cc1cccc2ccccc12)Nc1sc2c(c1C(=O)O)CCC2 | -7 | 0.9
CC[C@H]1C=CCN1C(=O)NCCN(C)CCc1ccccc1 | -15 | 1.6
CCS(=O)(=O)NCc1cccn1Cc1ccccc1 | -4 | 0.52
Cn1cc(C(=O)N2CCc3ccccc3C2)nn1 | -20 | 2.55
CC(C)C(=O)N1CCc2ccc(OCc3ccc(C(=O)NCCN4CCCC4)o3)cc2[C@@H]1c1ccccc1 | -10 | 1.19
COc1c(F)cccc1CN1CCn2nc(CNc3ncccn3)cc2C1 | -7 | 1.44
Cn1cc(CC2CCCC2Nc2ccc3nccnc3n2)cn1 (stereo not drawn) | -16 | 2.56
CC(F)(F)CC(=O)N1CC2(CCOC2)C1 | -8 | 1.03
CCC(C)C(=O)N1CCC(C2(Cc3ccccc3C)NC(=O)N(CCCN(C)C)C2=O)CC1 (stereo not drawn) | -1 | 0.15
Cc1cccc(-c2ccc(CN3CCN(C)CC3)cn2)c1C | -2 | 0.34
CCO[C@H]1CN(CC)C[C@@H]1NC(=O)c1cnoc1-c1ccccc1 | 3 | -0.64
CCN1CCC[C@@H]1CNC(=O)Nc1ccc(Cl)cc1 | -3 | 0.47
Cc1nc([C@@H]2COCCN2S(=O)(=O)c2cc(Cl)cc(Cl)c2)no1 | -10 | 1.32
CC(C)(C)n1cc(C#N)cc1NC(=O)c1cc(S(C)(=O)=O)ccc1Cl | -15 | 1.53

SMILES | % Inhibition [%] | Z score
Cc1cccc(CC(=O)N2CC(N3C(=O)COC3=O)C2)c1 | -8 | 0.9
COc1ccccc1CC(C)(C)C(=O)N1CC(n2nc(C)nc2C)C1 | -2 | 0.38
CN(Cc1cc[nH]n1)S(=O)(=O)CCC1CCC1 | -8 | 1.16
Cc1cc(NCc2cnnn2C)ncc1Br | -13 | 1.67
OC1=Nc2cccc3c2c(cn3Cc2cccc(F)c2)[C@@H](c2ccccc2OCCc2ccc3c(c2)CCO3)C1 | -4 | 0.49
COc1ccc(-c2cc(C(=O)N3CCN(c4ccc(OC)cc4)CC3)c(C)n2-c2cccc(OC)c2)cc1 | -9 | 1.3
O=C(Cc1cccnc1)N1C[C@H]2CC[C@@H](C1)N(CC1CCC1)C2=O | -11 | 1.91
Cc1cccc(-c2nc(CN(C)C(C3CC3)C3CC3)c(C)o2)c1 | 4 | -0.56
CCCN1C(=O)c2ccccc2C(C(=O)NC2CCCc3ccccc32)C1c1cc(OC)c(OC)c(OC)c1 (stereo not drawn) | 14 | -2.3
COCCCn1c(C)cc(C(=O)N2C[C@@H](C(N)=O)[C@H](c3nc(C)no3)C2)c1C | -9 | 1.37
CCn1ncc(-c2nc3c(cnn3C)[nH]2)c1C | -1 | 0.12
Cc1cnn(CC(=O)N2CCCN(S(=O)(=O)N3CCCCC3)CC2)c1 | -4 | 0.82
O=C([C@@H]1Cn2cccc2C(=O)N1Cc1cccnc1)N1CCN(c2ccccn2)CC1 | -1 | 0.22
CC(=O)Nc1cc(Br)ccc1Cl | -3 | 0.34
O=C(Cc1csc(-c2ccccc2)n1)N1CCCC1 | -2 | 0.36
CC(C)(C)c1noc(CNC(=O)CCCn2cnnn2)n1 | -3 | 0.34
CCOc1ccc(C(=O)N[C@H]2C[C@@H](c3cc(N4CCOCC4)ncn3)C2)o1 | -5 | 1.02
CCc1nnc(NC(=O)NCc2ncc(C(C)(C)C)o2)s1 | 0 | 0.04
Brc1ccc(-c2nnc(Cn3nnnc3-c3ccncc3)o2)cc1 | 5 | -0.59
O=C(CN1CCCCCC1)NC1CCN(C(=O)N2CCCCC2)CC1 | -12 | 2.62
CC(C)Oc1cccc(-c2cccc3cnccc23)c1 | 12 | -1.69
CC(C)(C)c1ncc(CN[C@@H]2C=C[C@H](CO)C2)s1 | 0 | 0.02
CN(C(=O)Cn1c(=O)n(C)c(=O)c2ccccc21)C1CCCCC1 | -1 | 0.19
OCc1nnsc1N1CCOCC1 | -26 | 3.05
CN1CCN(C(=O)c2ccc(F)cc2F)c2ccccc2C1 | -12 | 1.62
CS(=O)(=O)Cc1nc([C@H]2CCOC2)nn1C1Cc2ccccc2C1 | -3 | 0.49
O=C(CCn1cnc2cc(-c3noc(Cc4ccc(Cl)cc4)n3)ccc21)N1CCCC1 | -18 | 2.35
